Results from PubChem BioAssay AID488969 (Vanderbilt High Throughput Screening Facility, 2010).
In all, about 110,000 compounds were measured (“z-score”: median about -0.1, highest 2% from about 2 on). The list shows a part of the results. Active and inactive are the calls of the source.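 Rule for the calls: active = z-score in the third read window above 3 or below -3; inactive = the rest.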 Non-standard residues stand in square brackets, D forms with d. Residues, ends and D or L forms follow the SMILES beside them. ξ: configuration not given here. *: point of attachment. Cbz = O=C(OCc1ccccc1)*; ξK = NCCCCC(N)C(=O)O

These compounds were tested against Metabotropic glutamate receptor 8 (Rattus norvegicus) (UniProt P70579) (assay: rat mGluR8 modulators via GIRK flux, primary screen, cell-based, thallium flux, HTS (AID 488969)). Details: HEK293 rat mGluR8, GIRK (G protein-gated inwardly rectifying potassium channel) thallium flux, FluoZin2; at 10 µM; stronger effect = higher value; submaximal glutamate (EC20) added with thallium.
Sequence of UniProt P70579 (P70579 whole entry, looked up): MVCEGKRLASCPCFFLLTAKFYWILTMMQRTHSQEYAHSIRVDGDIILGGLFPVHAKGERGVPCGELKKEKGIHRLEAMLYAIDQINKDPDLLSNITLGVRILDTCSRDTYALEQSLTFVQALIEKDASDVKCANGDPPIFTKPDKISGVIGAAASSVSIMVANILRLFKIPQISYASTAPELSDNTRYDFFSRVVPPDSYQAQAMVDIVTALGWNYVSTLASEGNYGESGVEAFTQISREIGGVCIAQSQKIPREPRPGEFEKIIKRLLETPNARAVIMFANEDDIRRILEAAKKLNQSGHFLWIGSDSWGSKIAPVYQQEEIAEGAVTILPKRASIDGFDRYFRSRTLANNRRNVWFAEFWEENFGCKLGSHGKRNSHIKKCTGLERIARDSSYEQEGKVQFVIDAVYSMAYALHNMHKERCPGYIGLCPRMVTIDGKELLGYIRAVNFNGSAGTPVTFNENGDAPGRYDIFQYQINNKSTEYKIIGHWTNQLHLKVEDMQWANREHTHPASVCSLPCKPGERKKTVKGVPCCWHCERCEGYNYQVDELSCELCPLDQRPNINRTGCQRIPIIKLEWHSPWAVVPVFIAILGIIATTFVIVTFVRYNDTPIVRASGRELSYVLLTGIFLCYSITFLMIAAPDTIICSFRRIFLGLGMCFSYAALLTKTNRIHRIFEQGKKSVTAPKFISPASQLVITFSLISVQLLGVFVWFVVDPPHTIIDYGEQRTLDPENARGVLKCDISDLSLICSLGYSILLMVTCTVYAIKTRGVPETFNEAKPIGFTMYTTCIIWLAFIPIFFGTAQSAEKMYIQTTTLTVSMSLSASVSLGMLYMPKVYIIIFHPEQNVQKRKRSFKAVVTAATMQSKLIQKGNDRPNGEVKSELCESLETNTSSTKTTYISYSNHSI

| SMILES | z-score |
| --- | --- |
| O=C(NCCOc1nc(N2CCOCC2)nc(N2CCOCC2)n1)Nc1ccc(Cl)cc1 | -0.0682 |
| O=C(NN1CCOCC1)c1cc(-c2ccccc2)nc2ccccc12 | -0.494 |
| CC(C)(C)N(NC(=O)OCc1ccccc1)C(=O)c1ccccc1 | -0.187 |
| Cc1n[nH]c(=O)nc1NCCc1ccccc1 | 1.04 |
| COC(=O)C(CCCCNC(=O)OCc1ccccc1)NC(=O)CN (stereo not given) (H-Gly-[ξK](Cbz)-OMe) | -0.116 |
| COc1ccc(C=Nc2cccc3c(=O)[nH][nH]c(=O)c23)c2ccccc12 | -0.412 |
| Cc1ccc(OCc2cc(C(=O)Nc3ccccc3)oc2C)cc1 | -0.14 |
| O=C1C=C(c2cccs2)CC(c2cccs2)C1n1cnc([N+](=O)[O-])c1 (stereo not given) | -0.313 |
| CC(C)CCNC(=O)C(c1cccs1)N(CC1CCCO1)C(=O)Cn1nnc2ccccc21 (stereo not given) | -0.28 |
| Cc1c(Cl)cccc1-n1c(SCC(=O)NCc2ccccc2Cl)nnc1-c1ccncc1 | -0.28 |
| COc1ccc(Cl)cc1NC(=O)c1nc2nc(C)cc(C(F)F)n2n1 | 0.261 |
| COc1ccc(-c2nc3c4ccccc4[nH]c(=O)n3n2)cc1 | -1.23 |
| Clc1ccc(-c2csc(NNC3=NCCCCC3)n2)cc1 | -0.25 |
| COc1ccc([N+](=O)[O-])cc1NC(=O)CCN1CCN(c2ccccc2OC)CC1 | -0.168 |
| Cn1c(SCc2nnc(-c3ccc(F)cc3)o2)nnc1C1COc2ccccc2O1 (stereo not given) | -0.382 |
| O=C(Nc1nc2nccc(-c3ccccc3)n2n1)c1ccc(F)cc1 | -0.642 |
| O=C(CCS(=O)(=O)c1cccc2nsnc12)N1CCN(Cc2ccc3c(c2)OCO3)CC1 | 0.136 |
| CCc1ccccc1NC(=O)CN(C)C(=O)COc1ccc(C)nc1[N+](=O)[O-] | -0.538 |
| CCCC1C(C#N)=C(N)Oc2cc(C)n(C)c(=O)c21 (stereo not given) | 0.662 |
| Cc1ccc(S(=O)(=O)N2CCOCC2)cc1C(=O)NCCCn1ccnc1 | -0.309 |
| O=C(CCCc1nc2ccccc2s1)NC(c1ccccc1)c1ccccc1 | -0.315 |
| O=C(CN1CCCC1)N/N=C/c1ccc(-c2cccc(Cl)c2)o1 | -0.192 |

| SMILES | z-score |
| --- | --- |
| COc1ccccc1C1CC(=O)Nc2cc3c(cc21)OCCO3 (stereo not given) | 0.272 |
| Cc1cccc(NC(=O)C2CCCN(C(=O)Nc3ccccc3)C2)c1C (stereo not given) | 0.55 |
| O=C(Nc1ccc(Cl)cc1)c1cc2nc(-c3ccco3)cc(C(F)(F)F)n2n1 | -0.181 |
| O=C(Cc1cccc2ccccc12)N1CCCc2ccccc21 | -0.0088 |
| CC(C)CCn1c(=O)c2ccccc2c2ccccc2c1=O | 0.474 |
| O=C(CCCC(=O)N(CC(=O)NC1CCCCC1)Cc1ccc2c(c1)OCO2)Nc1ccccn1 | -0.358 |
| O=C(CN1CCSCC1)N/N=C/c1ccc(F)c(F)c1 | -0.167 |
| CCOc1ccc(NC(=O)C2CCCN(S(=O)(=O)c3c(C)nn(C)c3C)C2)cc1 (stereo not given) | -0.442 |
| Cc1ccc(S(=O)(=O)N(C(=O)c2ccncc2)c2ccc(OC(=O)c3ccncc3)c3ccccc23)c(C)c1 | 0.37 |
| CCC(=O)NNc1ncnc2ccccc12 | -0.196 |
| Cc1nc(Cc2nnc(SCc3nc(N)nc(Nc4ccccc4C)n3)o2)cs1 | -0.183 |
| CSc1nnc(N(CCC#N)CCC#N)s1 | -0.113 |
| CN1C(=O)CC(C(=O)O)SC1=Nc1cc(Cl)c(O)c(Cl)c1 (stereo not given) | 0.0261 |
| COc1ccc(C(NC(=O)/C=C/c2ccco2)c2ccc(OC)c(OC)c2)cc1 (stereo not given) | -0.0995 |
| C/C(NCCN1CCOCC1)=C(\C#N)C(N)=O | -0.809 |
| CN(C)S(=O)(=O)c1ccc(C(=O)Nc2ccnn2C2CCCCC2)cc1 | -0.332 |
| CC1CCCCC12NC(=O)N(CC(=O)Nc1ccc(S(=O)(=O)N3CCOCC3)cc1)C2=O (stereo not given) | 0.163 |
| O=C(/C=C/c1ccccn1)c1ccc(Br)cc1O | -0.442 |
| CS(=O)(=O)N(CC(=O)Nc1cccc(F)c1)c1cccc([N+](=O)[O-])c1 | 0.126 |
| COc1cccc(/C=N\NC(=O)c2cc(OCC(F)(F)F)ccc2OCC(F)(F)F)c1 | -0.169 |
| Cc1cc(C)nc(-n2nc(C)c3c(C)c(C)c(C)nc32)n1 | 0.0323 |
| COc1ccc(NC(=O)CN(c2ccc(C(C)C)cc2)S(=O)(=O)c2c(C)noc2C)cc1OC | -0.602 |

| SMILES | z-score |
| --- | --- |
| CC(/C=C/c1ccc2c(c1)OCO2)=N/NC(=O)C1COc2ccccc2O1 (stereo not given) | -0.296 |
| CN(C)c1ccnc2sc3c(=O)n(Cc4ccccc4)cnc3c12 | -0.622 |
| CCCCNc1nc2ccccc2[nH]1 | 0.348 |
| Cc1c(/C=N/NC(=O)COc2ccccc2[N+](=O)[O-])c2ccccc2n1C | -0.244 |
| O=C(Nc1nonc1NC(=O)C1CCCCC1)C1CCCCC1 | -0.205 |
| O=C(Nc1ccc(-c2nc3ncccc3o2)cc1)c1ccco1 | 0.0382 |
| Cc1ccc(N(C(=O)c2ccc(Br)o2)C2C=CS(=O)(=O)C2)cc1 (stereo not given) | 0.0636 |
| Cc1nn(CC#N)c(=O)n1-c1ccccc1 | -0.0588 |
| CCC(=O)Nc1cccc(-c2nnc(-c3cccc(NC(=O)CC)c3)o2)c1 | 0.735 |
| Cc1noc(C)c1CS(=O)(=O)c1ccc(Br)cc1 | 0.923 |
| Cc1cc(C2C(C#N)=C(N)Oc3n[nH]c(C)c32)c(C)s1 (stereo not given) | 0.591 |
| Cc1ccc(C(=O)COC(=O)CCCC(=O)NC2CCCCC2)cc1[N+](=O)[O-] | -0.237 |
| OCCN(Cc1ccccc1)CC1CCCCC1 | 0.614 |
| COc1cccc2cc(C(=O)NCc3ccccn3)c(=O)oc12 | -0.114 |
| CCOC(=O)N1CCC(NC(=O)Cn2nc(Cc3ccncc3)c3ccccc3c2=O)CC1 | 0.713 |
| CC(c1ccccc1)n1cc(C(=O)NCC2CCCO2)nn1 (stereo not given) | -0.108 |
| CCN(CC)S(=O)(=O)c1ccc(S(=O)(=O)N(CC(=O)Nc2ccccc2)CC2CCCO2)cc1 (stereo not given) | -0.241 |
| O=C(NCCCNCc1ccccc1)/C(=N\O)c1ccccc1 | 0.267 |
| COCCNC(=O)CCn1nc(-c2ccc(Cl)cc2)ccc1=O | 0.962 |
| Cc1ccc(C)c2c1cc(C)c1nnc(SCc3ccccn3)n12 | 0.0637 |
| N=C1C(c2ccccc2)=C(O)CN1c1ccc2c(c1)OCO2 | -0.681 |
| CCOC(=O)/C(C#N)=C/c1ccc(OC(=O)c2ccco2)c(OCC)c1 | -0.201 |

| SMILES | z-score |
| --- | --- |
| COc1ccc(-n2c(Cc3cccn3C)nnc2SCC(=O)Nc2ccccc2C)cc1 | -0.329 |
| CCC(=O)Nc1ccc(Oc2ccc3c(c2)C(=O)NC3=O)cc1 | -0.161 |
| CCOc1ccccc1N(CC(=O)N1CCOCC1)S(=O)(=O)c1ccc(SC)cc1 | 0.146 |
| CCOC(=O)CSc1n[nH]c(NC(=O)c2ccc(F)cc2)n1 | 1.85 |
| CN(C(=O)CSc1nc2c(c(=O)[nH]1)CCCC2)C1CCCCC1 | -0.116 |
| S=C(NCc1ccccn1)Nc1cccc(Cl)c1 | -0.0144 |
| Cc1ccc(S(=O)(=O)NCCN2CCOCC2)cc1 | -0.213 |
| COc1ccc(NC(C)C(=O)N/N=C/c2ccccc2OCc2cccc(Br)c2)cc1 (stereo not given) | -0.15 |
| CCCCn1nnnc1SCC(=O)c1ccc(C)c(C)c1 | 0.192 |
| O=C(O)c1cccc(N2CCCC2)c1 | -0.186 |
| CCOC(=O)C(NC(=O)c1ccc(OC)cc1)(Nc1cc(C)on1)C(F)(F)F (stereo not given) | 0.0402 |
| COc1cccc(/C=N/NC(=O)c2cc3c(OC)cccc3[nH]2)c1O | 0.316 |
| CCn1nc(C)c(NC(=O)CSc2nnc(-c3ccco3)n2C)c1C | 0.267 |
| CCOC(=O)C(C(=O)OCC)C1CS(=O)(=O)CC1C(C(=O)OCC)C(=O)OCC (stereo not given) | 0.0478 |
| COc1ccc(CCNC(=O)COC(=O)C23CC4CC(CC(Br)(C4)C2)C3)cc1 | -0.354 |
| Cc1ccc(C(=O)CC(Nc2ccc(F)cc2)c2ccccc2)cc1 (stereo not given) | -0.0356 |
| COc1cc(S(=O)(=O)N2CCOCC2)cc(C(=O)c2nccn2C)c1OC | 0.65 |
| COC(=O)c1ccc(/C=C2\N=C(SC)SC2=O)cc1 | -0.529 |
| O=C(CSc1nc(-c2ccccc2)cs1)Nc1nccs1 | 0.0703 |
| COc1ccccc1/C=C/C(=O)c1ccc(Cl)cc1 | -0.189 |
| COC(=O)c1ccc(NC(=O)CSc2ccccn2)cc1 | 0.0306 |
| CC(C)NCCCOc1ccc(C(C)(C)c2ccccc2)cc1 | 0.192 |

| SMILES | z-score |
| --- | --- |
| CCc1ccc(-c2cc(C(=O)Nc3c(C)n(C)n(-c4ccccc4)c3=O)c3ccccc3n2)s1 | -0.167 |
| C/C(=C\c1ccco1)C1C(C#N)=C(N)OC2=C1C(=O)CC(C)(C)C2 (stereo not given) | -0.0699 |
| CCCCn1c(NC(=S)Nc2ccccc2)nc2ccccc21 | 2.55 |
| Cc1nc2nc(Cc3ccccc3)[nH]n2c(=O)c1Cc1ccccc1 | active: -3.69 |
| CC1(C)CC(=O)C2=C(C1)N(N1CCOCC1)C(N)=C(C#N)C2c1cccnc1 (stereo not given) | 0.973 |
| O=C(CCCc1ccccc1)NC1CCSC1=O (stereo not given) | -0.328 |
| Cc1ccccc1-n1c(=O)cc(N2CCc3ccccc32)[nH]c1=O | 0.356 |
| COc1ccc(C(=O)NC(=S)N2CCN(c3ccc([N+](=O)[O-])cc3)CC2)cc1 | 0.274 |
| CC1(C(=O)N(CC(=O)NC2CCCC2)Cc2ccco2)CC(=O)N=C2C=CC=CN21 (stereo not given) | 0.194 |
| Cc1c(NC(=O)CSc2nnc(C(C)Oc3ccc(Cl)cc3)n2-c2ccccc2)c(=O)n(-c2ccccc2)n1C (stereo not given) | -0.583 |
| CNC(=O)c1ccccc1S(=O)c1ccccc1C#N (stereo not given) | -0.00179 |
| COc1ccc(CC(=O)NCc2cccs2)cc1 | 0.187 |
| O=c1c(-c2ccc(Cl)cc2)[n+]([O-])c2ccccc2n1O | active: 14 |
| Cc1ccc(NC(=O)c2cc(-c3ccc(C)o3)nc3ccccc23)cc1 | -0.215 |
| O=C(Nc1ccc(N2CCCC2)cc1)c1ccc(Br)o1 | -0.462 |
| Cc1ccc(C(=O)N2CCN(c3ccc(C(F)(F)F)cn3)CC2)c(C)c1 | -0.0998 |
| CCC(CC)NC(=O)CON=C1c2ccccc2-c2ccccc21 | -0.376 |
| O=c1[nH]c2ccc(Cl)cc2c(-c2ccccc2)c1CN1CCOCC1 | -0.384 |
| CN(C)S(=O)(=O)c1ccc(C(=O)Nc2ccccc2OC(F)(F)C(F)F)cc1 | -0.525 |
| Cc1ccc(CC(=O)N2CCN(c3cccc(C(F)(F)F)c3)CC2)cc1 | active: 6.97 |
| CCCC(=O)N1CCc2cc(-c3nc(N)sc3C)ccc21 | -0.205 |
| COc1ccccc1NS(=O)(=O)c1cc(NC(=O)c2cccs2)ccc1N1CCCCC1 | 0.0282 |
